Measured values taken from article PMC4336329 (PLoS ONE, 2015).
Among all 310,000 compounds or so, about 2,200 (0.71%) showed an effect of 50% or more. The effect is printed as a negative number. The list shows a part of the results.

The molecules below were run against human ether-à-go-go-related gene (hERG) potassium channel (human, UniProt Q12809) (assay: primary screen, population patch clamp on CHO cells stably expressing hERG).
Sequence of human ether-à-go-go-related gene (hERG) potassium channel (Q12809 whole entry, looked up): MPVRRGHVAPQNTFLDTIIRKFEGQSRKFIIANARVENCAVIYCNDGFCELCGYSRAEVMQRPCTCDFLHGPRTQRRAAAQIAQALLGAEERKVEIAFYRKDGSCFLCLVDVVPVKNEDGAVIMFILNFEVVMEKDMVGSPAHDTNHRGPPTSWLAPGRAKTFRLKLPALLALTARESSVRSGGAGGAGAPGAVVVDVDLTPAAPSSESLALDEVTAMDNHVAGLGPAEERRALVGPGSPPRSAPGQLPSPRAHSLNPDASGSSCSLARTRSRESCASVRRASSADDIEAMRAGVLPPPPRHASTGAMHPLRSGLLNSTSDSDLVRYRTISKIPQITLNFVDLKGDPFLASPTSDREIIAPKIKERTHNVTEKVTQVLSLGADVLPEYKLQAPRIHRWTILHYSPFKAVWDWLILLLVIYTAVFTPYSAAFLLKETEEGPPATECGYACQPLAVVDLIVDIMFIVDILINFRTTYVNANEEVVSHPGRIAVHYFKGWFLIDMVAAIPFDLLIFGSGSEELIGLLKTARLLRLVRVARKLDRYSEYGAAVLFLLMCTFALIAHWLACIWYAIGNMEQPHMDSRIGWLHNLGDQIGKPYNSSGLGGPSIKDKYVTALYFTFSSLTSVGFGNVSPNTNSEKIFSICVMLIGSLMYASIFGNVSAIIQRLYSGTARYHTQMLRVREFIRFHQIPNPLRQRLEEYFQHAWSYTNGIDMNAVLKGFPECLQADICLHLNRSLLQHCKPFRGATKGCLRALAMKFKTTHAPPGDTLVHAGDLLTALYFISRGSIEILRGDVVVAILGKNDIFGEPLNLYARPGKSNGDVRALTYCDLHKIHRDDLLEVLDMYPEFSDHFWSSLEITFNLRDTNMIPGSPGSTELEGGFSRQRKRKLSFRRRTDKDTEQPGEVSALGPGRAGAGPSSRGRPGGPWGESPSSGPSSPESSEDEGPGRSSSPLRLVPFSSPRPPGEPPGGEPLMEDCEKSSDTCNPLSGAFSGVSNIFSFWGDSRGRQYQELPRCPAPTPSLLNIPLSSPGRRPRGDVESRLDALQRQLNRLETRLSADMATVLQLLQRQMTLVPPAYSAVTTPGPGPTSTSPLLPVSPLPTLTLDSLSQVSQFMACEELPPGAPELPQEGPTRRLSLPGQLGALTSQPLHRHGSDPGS

SMILES	hERG current change (%, negative = inhibition) at 1uM [%]
COc1ccc(Cc2nnc(NC(=O)c3cc(OC)cc(OC)c3)s2)cc1	13.9
CN1CCN(S(=O)(=O)c2cccc(C(=O)N(c3ccccn3)C3CCCCC3)c2)CC1	-11
CC(=O)N1CCN(c2ccc(NCc3ccc(C(C)C)cc3)cc2)CC1	6.7
CCOc1ccc(NC(=O)CCC(=O)Nc2cc(OC)c(NC(=O)c3ccco3)cc2OC)cc1	13.1
O=Cc1ccc(OCCN2CCCC2=O)cc1	14.8
Cc1ccc(-c2csc(NC(=S)NC(=O)c3ccco3)n2)cc1	9.45
O=C(COC(=O)Cc1ccc(Cl)cc1)NC1CCCC1	10.9
CCN1CCN(C(=O)CCc2nnc3ccc(N4CCN(c5cccc(OC)c5)CC4)nn23)CC1	10.3
CCn1c(=O)cc(SCC(=O)Nc2ccc3c(c2)OCCO3)c2ccccc21	8.52
O=P(COCCOCP(=O)(c1ccccc1)c1ccccc1)(c1ccccc1)c1ccccc1	20
COc1ccc(CCNC(=O)CSc2nc3sc(C(=O)O)c(C)c3c(=O)[nH]2)cc1OC	-0.155
Cc1ccccc1C(=O)NNC(=O)/C=C/c1ccccc1	11.3
CC1CN(S(=O)(=O)c2ccc(C(=O)N3CCc4ccccc43)cc2)CC(C)O1 (stereo not shown)	11.6
CCOc1ccccc1N(C)C(=O)CCS(=O)(=O)c1ccc2c(c1)NC(=O)CO2	16.2
N#CC1=C(S)N(c2ccccc2)C(c2cccs2)NC1=O (stereo not shown)	2.05
CN(Cc1c(F)cccc1Cl)C(=O)c1cccc(S(=O)(=O)NCc2ccccc2)c1	6.08
O=c1nc2n(Cc3ccccc3)c3ccccc3cc-2c(=O)[nH]1	5.26
COC(=O)c1cccc2c1NC(=O)C2=O	9.35
CCN(CC)C(=O)Cn1cc(C(=O)C(=O)NCc2cccnc2)c2ccccc21	14.1
CC(NC(=O)C(=O)NCCC1=CCCCC1)c1ccccc1 (stereo not shown)	8.63

SMILES	hERG current change (%, negative = inhibition) at 1uM [%]
ClC1(Cl)CC1CSc1nc2ccccc2[nH]1 (stereo not shown)	1.48
Cn1cnc2c1c(=O)[nH]c(=O)n2C	15.7
CC1CCCN(C(=O)c2ccc3c(=O)n(C4CCCC4)c(=S)[nH]c3c2)C1 (stereo not shown)	7.94
Cc1ccccc1-c1cc2nc(C)c(C)c(=O)n2[nH]1	9.82
Cc1oc(-c2ccccc2Cl)nc1CS(=O)CC(=O)NCc1cccs1 (stereo not shown)	11.1
COc1cc(NC(=O)CSc2nc3[nH]ncc3c(=O)n2-c2ccc(Cl)cc2)cc(OC)c1	16.3
Cc1ccc(-c2ccc(CO)o2)cc1N	13.4
CC(=O)N(Cc1ccco1)C1(C(=O)NC2CCCCC2)CCCCC1	5.71
COc1ccccc1NC(=O)c1ccc(-c2ccccc2F)o1	12.9
CCCN(CC(=O)Nc1ccc(C(N)=O)cc1)CC(=O)Nc1cc(Cl)ccc1Cl	8.33
CCc1ncc(C(O)c2cccc(OC)c2OC)n1C (stereo not shown)	4.14
Cc1ccc(NC(=O)C2CCCN(C3=NS(=O)(=O)c4ccccc43)C2)c(O)c1 (stereo not shown)	5.29
COc1ccc(OCCSc2nc(C)c(Cc3ccccc3)c(=O)[nH]2)cc1	7.38
CCOC(=O)Nc1sc2c(c1C(=O)OCC)CCC2	14.7
C/C(=N\NC(=O)c1ccc(CN2CCc3ccccc3C2)cc1)c1ccccc1O	11.4
COc1ccc(Br)cc1CN(C)C(=O)c1cc(Cl)c2c(c1)OCCO2	13.9
CCC(=O)Nc1ccnc(-c2cccnc2)n1	2.92
Cc1nc2ncnn2c(C)c1CCC(=O)NC(C)c1ccc2c(c1)OCCO2 (stereo not shown)	-15.5
COc1ccccc1OCC(=O)Nc1cccc(-c2nnc(-c3ccco3)o2)c1	15
COc1ccc(OC)c(-c2csc(NC(=O)Cc3ccc(F)cc3)n2)c1	15.5

SMILES	hERG current change (%, negative = inhibition) at 1uM [%]
COc1cccc(NC(=O)c2cc(C(=O)Nc3cccc(OC)c3)n(C)n2)c1	14.5
CCn1cc(C(=O)N2CC(C)CC(C)C2)c(=O)c2cc(S(=O)(=O)N(C)C)ccc21 (stereo not shown)	0.69
N#Cc1ccccc1S(=O)(=O)N1CCN(C(=O)CN2C(=O)NC3(CCCC3)C2=O)CC1	17.6
Cc1ccc(/C=N/n2c(-c3ccco3)n[nH]c2=S)cc1	14.6
C=CCn1c(SCCCC)nc([O-])cc1=O.[NH4+]	3.42
CC1CCN(c2ccc3c(c2)S(=O)(=O)c2ccccc2C3=O)CC1	12.8
Cc1oc2c(c1C(=O)c1ccccc1)C(=O)C(=O)c1ccccc1-2	4.1
COc1ccccc1N1CCN(C(=O)c2ccc(NS(=O)(=O)c3ccc(C)cc3)cc2)CC1	8.08
CC(C)(C)c1cc(/C=C2\NC(=O)NC2=O)cc(C(C)(C)C)c1O	13.1
CCCn1cnc2cc(NC(=O)c3cccs3)ccc21	15.7
O/N=C1\CCCc2c1nc(-c1ccccc1F)n2O	17.9
O=C(Nc1ccccc1OC(F)(F)F)c1ccc([N+](=O)[O-])cc1	6.59
Cc1ccc2c(c1)C1CN(C)CCC1N2C(=O)/C(C#N)=C/c1ccc2c(c1)OCO2 (stereo not shown)	3.5
O=C(c1ccccc1Br)N1CCn2c1nc1ccccc12	-1.38
O=C1CC(N2CCN(c3ccc(Cl)cc3)CC2)C(=O)N1c1ccccc1 (stereo not shown)	3.93
CN(C(=O)COC(=O)c1cccc(Cl)c1)C1CCS(=O)(=O)C1 (stereo not shown)	4.65
Cc1cc(C(=O)N2CCc3ccccc3C2)n[nH]1	9.64
c1ccc(Nc2nc(-c3cccnc3)cs2)nc1	5.19
